Reference: patent publication EP4144838A1, “ORGANISMS PRODUCING LESS CROTONIC ACID” (Global Bioenergies, priority 2021, dated 2023)

Tests used:
[1] = tested on: TaFdcV; test: Cycloadduct formation with TaFdcV followed by UV-Vis spectroscopy; format: binding, Trichoderma atroviride; details: UV-Vis spectrum before and after a desalting step
[2] = tested on: TaFdc; test: Adduct formation with TaFdc wild-type followed by UV-Vis spectroscopy; details: UV-Vis spectrum before and after a desalting step
Method: Incubation of 80 µmol TaFdcV with 10 mM 3-methylcrotonic acid led to a complete shift in the corresponding UV-Vis spectrum.
In order to assess the scope for activity with acrylic acids lacking extended conjugation, TaFdc and TaFdcV were incubated with trans-2-pentenoic and trans-2-hexenoic acid, compounds that have previously been reported to undergo some AnFdc-mediated decarboxylation.

CC(C)=CC(=O)O [3-methylcrotonic acid]
adduct formation / binding, reversibility after desalting [1]: long-lived, inhibitory covalent complex with 3-methylcrotonic acid is not formed | adduct formation / binding, reversibility after desalting [2]: long-lived, inhibitory covalent complex with 3-methylcrotonic acid is not formed
